The source of these data is the supplement of paper PMC9446081.

Structures are written as SMILES. Screen size: about 39,000 compounds; about 220 (0.56%) showed activity. The list shows a part of the results.
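Also: static incubation at 37 °C against the wild-type strain, values averaged over two biological replicates.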

The subject of the experiment is Escherichia coli K-12 BW25113. In words: relative growth (OD600 normalised to plate interquartile mean) (fraction); higher = less growth inhibition, active = 0.2 or less. Conditions: 50 µM; LB; incubation time: overnight (16-24 h).
Regarding `C[C@H](CO)N1C[C@H](C)[C@H](CN(C)C(=O)Nc2ccccc2)OCCCC[C@H](C)Oc2ccc(NC(=O)CCC(F)(F)F)cc2C1=O`, the relative growth was inactive: 1.04. With `COc1cc2c(cc1OC)CN(C(=O)[C@@H]1[C@H]3C(=O)O[C@H](c4ccccc4)[C@H](c4ccccc4)N3[C@H](c3ccc(OCCO)cc3)[C@@]13C(=O)Nc1ccc(C#CCCO)cc13)CC2` the figure was inactive: 1.08; with `COc1ccc(S(=O)(=O)N(C)C[C@H]2OCCCC[C@H](C)Oc3ccc(NC(=O)c4ccccc4)cc3C(=O)N([C@H](C)CO)C[C@@H]2C)cc1`, inactive: 1.01; with `CN(C)CC(c1ccc(O)cc1)C1(O)CCCCC1.O=C(O)CCC(=O)O` (centres undefined), inactive: 1.14. Turning to `CC(=O)N[C@@H](CC(=O)O)C(=O)N[C@@H](CCC(=O)O)C(=O)O`, the relative growth is inactive: 0.997.

As for `C[C@@H]1CN([C@H](C)CO)C(=O)c2cc(NC(=O)NC3CCCCC3)ccc2O[C@@H](C)CCCCO[C@@H]1CN(C)S(=O)(=O)c1ccc(Cl)cc1`, the relative growth is inactive: 1.01. The value for `O=C(CCCCCC(=O)N/N=C/[C@H](O)[C@@H](O)[C@@H](O)[C@H](O)CO)NO` was inactive: 1.04; that for `C[C@@H]1CN([C@@H](C)CO)C(=O)c2cccc(NC(=O)C3CCCCC3)c2O[C@@H]1CN(C)S(=O)(=O)c1cn(C)cn1` was inactive: 1.03; that for `C[C@@H]1CN([C@@H](C)CO)C(=O)c2cc(NS(C)(=O)=O)ccc2O[C@H]1CN(C)C(=O)Nc1ccc(F)cc1` was inactive: 1. Regarding `COc1ccc(NC(=O)Nc2ccc3c(c2)CC(=O)N([C@H](C)CO)C[C@@H](C)[C@@H](CN(C)S(C)(=O)=O)O3)cc1`, the relative growth is inactive: 0.992. Consider `O=C1CN(S(=O)(=O)Cc2ccccc2)C[C@@H]2[C@H](c3ccc(C#Cc4cccc(F)c4)cc3)[C@@H](CO)N12`, for which the relative growth is inactive: 0.987. With `C[C@@H]1CN([C@@H](C)CO)C(=O)c2c(c3ccccc3n2C)-c2ccccc2CO[C@@H]1CN(C)Cc1cccc(C(F)(F)F)c1` the figure was inactive: 1; with `Cc1cc(NC(=O)C2=C(O)c3ccccc3S(=O)(=O)N2C)no1`, inactive: 1.04. With `Cc1noc(C)c1NC(=O)Nc1cccc2c1O[C@@H](CN(C)S(C)(=O)=O)[C@@H](C)CN([C@H](C)CO)C2=O` the figure was inactive: 1; with `CO[C@@H]1CN(C)C(=O)c2cc(NC(=O)Nc3ccccc3F)ccc2OC[C@@H](C)N(Cc2ccccc2C(=O)O)C[C@@H]1C`, inactive: 0.992.

As for `CC(=O)OCC1=C(C(=O)[O-])N2C(=O)C(NC(=O)CSc3ccncc3)C2SC1.[Na+]` (centres undefined), the relative growth is inactive: 0.797. With `COc1cccc(-c2cnc3c(c2)C(=O)N([C@H](C)CO)C[C@H](C)[C@H](CN(C)Cc2cccc(C(F)(F)F)c2)O3)c1` the figure was inactive: 1.01; with `Cc1noc(C)c1S(=O)(=O)N(C)C[C@H]1Oc2ccc(N(C)C)cc2CC(=O)N([C@@H](C)CO)C[C@H]1C`, inactive: 0.974; with `CCCN(C)C[C@@H]1OCCCC[C@@H](C)Oc2ccc(NC(=O)C3CCCCC3)cc2C(=O)N([C@H](C)CO)C[C@@H]1C`, inactive: 1.02.

In the case of `O=C(C[C@H]1CC[C@H]2[C@@H](COC[C@H](O)CN2C(=O)Nc2ccc(Cl)c(Cl)c2)O1)NCc1ccc(Cl)c(Cl)c1`, the relative growth is inactive: 0.985. With `C[C@@H]1CN([C@@H](C)CO)C(=O)c2cc(NC(=O)Nc3cccc4ccccc34)ccc2O[C@@H](C)CCCCO[C@H]1CN(C)C(=O)Nc1cccc2ccccc12` the figure was inactive: 1.04; with `COc1ccccc1CNC(=O)C[C@H]1CC[C@H]2[C@@H](COC[C@@H](O)CN2C(=O)Nc2ccc(Cl)cc2)O1`, inactive: 0.973; with `CCCC(=O)Nc1ccc2c(c1)C(=O)N(C)C[C@@H](OC)[C@H](C)CN(Cc1ccc(-c3ccccn3)cc1)[C@H](C)CO2`, inactive: 1.01.

With `COc1cccc(-c2ccc3c(c2)O[C@@H](CN(C)C(=O)C2CCOCC2)[C@H](C)CN([C@H](C)CO)S3(=O)=O)c1`, the relative growth is inactive: 1. Consider `CCCCCCc1nc(CCCc2cc3c(c(CCCCCC)n2)[Si](C(C)C)(C(C)C)O[C@H]3c2ccccc2)cc2c1[Si](C(C)C)(C(C)C)O[C@H]2c1ccccc1`, for which the relative growth is inactive: 1.03. The value for `C[C@H](CO)N1C[C@H](C)[C@H](CN(C)C(=O)Nc2ccccc2)Oc2c(NC(=O)Nc3ccc(C(F)(F)F)cc3)cccc2C1=O` was inactive: 1.01; that for `O=C(C[C@@H]1CC[C@@H]2[C@H](COC[C@H](O)CN2C(=O)CCN2CCCCC2)O1)NCCCN1CCOCC1` was inactive: 1.01.

On to `Cc1ccc(S[C@]2(C(=O)NC3CC3)CC(=O)N(Cc3cc(C(F)(F)F)cc(C(F)(F)F)c3)[C@@H]2c2ccc(CO)cc2I)cc1`, for which the relative growth is inactive: 0.975. The value for `C[C@@H]1CCCCO[C@@H](CN(C)C(=O)CCC(F)(F)F)[C@@H](C)CN([C@H](C)CO)C(=O)c2cc(NC(=O)C3CCCCC3)ccc2O1` was inactive: 1.01. The value for `C[C@@H]1CN([C@@H](C)CO)S(=O)(=O)c2ccc(C#CC3(O)CCCC3)cc2O[C@@H]1CN(C)C(=O)c1ccncc1` was inactive: 0.993; that for `C[C@@H]1CCCCO[C@H](CN(C)Cc2ccc(C(F)(F)F)cc2)[C@H](C)CN([C@@H](C)CO)C(=O)c2cc(N(C)C)ccc2O1` was inactive: 0.959; that for `C[C@H](CO)N1C[C@H](C)[C@H](CN(C)S(=O)(=O)c2cn(C)cn2)Oc2ccc(NS(=O)(=O)c3ccc(Cl)cc3)cc2CC1=O` was inactive: 0.992. Regarding `C[C@H](CO)N1C[C@H](C)[C@@H](CN(C)C(=O)Nc2ccc(C(F)(F)F)cc2)OCCCC[C@H](C)Oc2ccc(NC(=O)Nc3ccccc3)cc2C1=O`, the relative growth was inactive: 0.996. The value for `COc1ccc(NC(=O)Nc2ccc3c(c2)C(=O)N([C@H](C)CO)C[C@@H](C)[C@H](CN(C)CC2CC2)OCCCC[C@H](C)O3)cc1` was inactive: 0.935; that for `C[C@@H]1CN([C@@H](C)CO)C(=O)c2cc(NS(=O)(=O)c3ccccc3)ccc2O[C@H]1CN(C)S(=O)(=O)c1ccccc1` was inactive: 1. `C[C@@H]1CCCCO[C@@H](CN(C)C(=O)Nc2ccccc2)[C@@H](C)CN([C@@H](C)CO)C(=O)c2cc(NS(=O)(=O)c3ccc(F)cc3)ccc2O1`: the relative growth was inactive: 1.02. With `COCC(=O)N(C)C[C@@H]1Oc2cc(C#Cc3cccnc3)ccc2S(=O)(=O)N([C@H](C)CO)C[C@@H]1C` the figure was inactive: 0.977.

Take `C[C@@H]1CN([C@H](C)CO)C(=O)c2cccc(NC(=O)Nc3cccc4ccccc34)c2O[C@H]1CN(C)S(=O)(=O)c1ccc(Cl)cc1`: the relative growth was inactive: 0.989. With `Cc1cc(C)c2c(c1)NC(=O)C[C@H]2c1cccc(Cl)c1Cl` the figure was inactive: 1.03. Regarding `Nc1ccc(O)c(C(=O)O)c1`, the relative growth is inactive: 1.01. The value for `COc1ccc(cc1)CN1C[C@]2(CCN(CC2)C(=O)Nc2cccc(c2)F)c2c([nH]c3cc(ccc23)OC)[C@@H]1CO` was inactive: 1.03; that for `C[C@@H]1CN([C@@H](C)CO)C(=O)c2cc(NC(=O)Cc3ccccc3)ccc2O[C@H]1CN(C)S(C)(=O)=O` was inactive: 0.987; that for `C/C=C/c1ccc2c(c1)O[C@H](CN(C)C(=O)c1ccc3c(c1)OCO3)[C@H](C)CN([C@@H](C)CO)S2(=O)=O` was inactive: 1.02. On to `C[C@H](CO)N1C[C@H](C)[C@@H](CN(C)Cc2ccccc2)Oc2ccc(NC(=O)CCN3CCOCC3)cc2C1=O`, for which the relative growth was inactive: 1.01. For `COc1ccc(S(=O)(=O)N[C@H]2C=C[C@@H](CC(=O)NCCc3ccncc3)O[C@@H]2CO)cc1`, the relative growth was inactive: 1.03. The value for `C[C@@H]1CCN(C(=O)[C@H](CCCNC(=N)N)NS(=O)(=O)c2cccc3c2NC[C@H](C)C3)[C@@H](C(=O)O)C1` was inactive: 1. For `Cc1noc(C)c1NC(=O)Nc1ccc2c(c1)C(=O)N([C@@H](C)CO)C[C@@H](C)[C@@H](CN(C)C(=O)Nc1c(C)noc1C)OCCCC[C@@H](C)O2`, the relative growth is inactive: 1.

On to `O=C(C[C@@H]1CC=CCC[C@@H](Cc2ccc(F)cc2)C(=O)OC[C@H](Cc2c[nH]c3ccccc23)NC1=O)N[C@H](CO)Cc1ccccc1`, for which the relative growth was inactive: 1.01.

`C[C@H](CO)N1C[C@H](C)[C@@H](CN(C)C(=O)c2ccc3c(c2)OCO3)Oc2ncc(C3=CCCC3)cc2C1=O`: the relative growth is inactive: 1.01. Take `c1ccc(CCNc2ccnc3cc4ccccc4cc23)cc1`: the relative growth is inactive: 0.946. The value for `NCCCCC(NC(CCc1ccccc1)C(=O)O)C(=O)N1CCCC1C(=O)O` (centres undefined) was inactive: 1.06; that for `CC1CCC2(OC1)OC1CC3C4CCC5CC(O)CCC5(C)C4CC(=O)C3(C)C1C2C` (centres undefined) was inactive: 0.913; that for `CC(C)NC(=O)N(C)C[C@@H]1Oc2ccc(NC(=O)Cn3cnnn3)cc2CC(=O)N([C@@H](C)CO)C[C@@H]1C` was inactive: 0.994. The value for `C[C@H](CO)N1C[C@H](C)[C@H](CN(C)C(=O)Nc2cccc3ccccc23)Oc2ccc(NC(=O)Cc3ccccc3)cc2C1=O` was inactive: 0.971. The value for `COCC(=O)Nc1ccc2c(c1)C(=O)N(C)[C@H]1CC[C@H](CC(=O)NC3Cc4ccccc4C3)O[C@H]1CO2` was inactive: 1; that for `C[C@@H]1CN([C@H](C)CO)S(=O)(=O)c2ccc(C#CC3(O)CCCC3)cc2O[C@H]1CN(C)C(=O)Nc1cccc(F)c1` was inactive: 1. With `COc1ccc(CN(C)C[C@@H]2OCCCC[C@@H](C)Oc3ccc(NC(=O)Nc4ccc(C(F)(F)F)cc4)cc3C(=O)N([C@@H](C)CO)C[C@H]2C)cc1`, the relative growth is inactive: 0.948. `COc1ccc(NC(=O)N(C)C[C@H]2OCCCC[C@@H](C)Oc3ccc(NC(=O)Cc4ccccc4)cc3C(=O)N([C@@H](C)CO)C[C@H]2C)cc1`: the relative growth was inactive: 0.988. With `CCCCc1ccc(S(=O)(=O)Nc2nccnc2-c2ccc(COc3cc(CC)nc4ccccc34)cc2)cc1` the figure was inactive: 1.
